To fix the notation:
T1: UNK ZnF1-3 (human, UniProt Q9C0B0 31-174)
T1 sequence: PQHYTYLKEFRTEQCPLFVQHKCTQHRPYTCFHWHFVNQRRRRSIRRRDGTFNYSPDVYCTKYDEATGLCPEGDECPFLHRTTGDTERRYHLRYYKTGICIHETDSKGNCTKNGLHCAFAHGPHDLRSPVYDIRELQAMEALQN

B1: chrX:129364583:129364584:-_ENSG00000056277_ENST00000370978|hu_hu|motif|central (ssRNA)
RNA: GGGAGUUCUACAGUCCGACGAUCAGUCUUUGGCUCUUUCUCAGUGACUCCUUCAUGCCUUCCAUAAUAAAACUCAUUGACGGACAUGAUCAACUUUCCUGUCUCUGAAUCAGUCUUGUCUUCAUCACAUGGACGUUCUGAUUUCAACAGAGGAUUGAGCAUCA
B2: chr14:89307221:89307222:+_ENSG00000165533_ENST00000346301|hu_mus|hu_hu_hu_mus_False|68_108 (ssRNA)
RNA: GGGAGUUCUACAGUCCGACGAUCUCCUGUCUGAUUAGUGCCAGGGAGCUUCAAAGAUGUGCCAGGGCGUGGAACUUGAGCAAUAGCAUUUUCAUCCAGGAUCAUUUCAGCAAUUCCUUCCUGGUCCACAUCAAUUUCAUCUAUCAACAGAGGAUUGAGCAUCA
B3: chr11:119170673:119170674:+_ENSG00000110395_ENST00000264033|hu_mus|FALSE|FALSE (ssRNA)
RNA: GGGAGUUCUACAGUCCGACGAUCACUGGAGACUGCAGGACUACAAAAACACUCUUAAGACCAAUACAACAAUGAAACACAUCAGCUGCUCCAUUUUCAUUCCACUGCUUUGAAAUCUUGGAACCAUAUGUGUCGAUCCCCACACAACAGAGGAUUGAGCAUCA
B4: 104554422_104554542_102_5pUTR_ENSMUSG00000032621_ENSMUST00000074616|mouse|control|control (ssRNA)
RNA: GGGAGUUCUACAGUCCGACGAUCACGCUUUCCCAGGACGCUGUUUUCGCGGUGAUCGAAAGUUGUGUUACACAUGACAACCGUUCGUGUUGGCUGCGUCACUAAUAGCACACAGAACAUCAGAUACAGAAAAGAAGAACAUUUCAACAGAGGAUUGAGCAUCA
B5: 48623262_48626664_2083_CDS_ENSMUSG00000031558_ENSMUST00000170109|mouse|control|control (ssRNA)
RNA: GGGAGUUCUACAGUCCGACGAUCAUUGUCAUAUAAAGAGAGCAGACGCACAGAGCCGAGUCCUAUGAAACUGUCGUUCCCAACACAGCUUAUUCGAUUACUUCUCAGCAUCAAUGUUUUGAGGCUCUCCAGUCCUUUGAACAUCAACAGAGGAUUGAGCAUCA
B6: chr10:70508923:70508924:+_ENSG00000060339_ENST00000535016|hu_hu|FALSE|FALSE (ssRNA)
RNA: GGGAGUUCUACAGUCCGACGAUCUCUUCCUGAAAAUCGGGAUGGGGGAUCUAAUCGUCGUGCCGGUUGUGGCUGUGAAACUAUACGAACAGGAGGCUGCAAUAAACCAGCUUUUUGCUGAGGCUGCUGUAAUAAGGGCUGUGGCAACAGAGGAUUGAGCAUCA
B7: chr6:40197388:40197389:+_ENSMUSG00000057716_ENSMUST00000061740|mus_mus|mus_mus_mus_hu_False|58_88 (ssRNA)
RNA: GGGAGUUCUACAGUCCGACGAUCGAGACACUGGGGUGGAUUUAUUCUCAGUUUGGGUGGGUGCUAGCCACUAAGACAGCUAUUUUGGGAUUCAUGGCCUUGAAUAUCAAGAGGGAAAGGAAGAGGAUGGAAAGAGUCAAGAGUCAACAGAGGAUUGAGCAUCA
B8: chr7:151048522:151048523:+_ENSG00000013374_ENST00000566856|hu_mus|hu_hu_hu_mus_True|1_68 (ssRNA)
RNA: GGGAGUUCUACAGUCCGACGAUCCUGUUUCUUAUUUAUUACGAUCUUGAUGUAAUUUUCUUGAAAUCCAAAGGUUUCAGCUAUUUGACACCUCAGGUCUCUACCAGUGACAUGCAAGCGGGUCUCCAACAAGCUUUUCCUAUCCAACAGAGGAUUGAGCAUCA
B9: chr6:149979360:149979361:-_ENSG00000131023_ENST00000543571|hu_mus|FALSE|FALSE (ssRNA)
RNA: GGGAGUUCUACAGUCCGACGAUCAGGGAAUGAUUGGGAAAAUACAAAUAGAUUCAUUAAAAACAGACUGAUUAUUUGUUCUAGUACAUUCAGAAAUAUCCAAAAACAGUUGUUAUAUUGCAAAGCUGUAAUUUUUCCUAGCAACAACAGAGGAUUGAGCAUCA
B10: chr16:94664741:94664742:+_ENSMUSG00000040785_ENSMUST00000117648|mus_mus|motif|central (ssRNA)
RNA: GGGAGUUCUACAGUCCGACGAUCUGGCAUGGAUCUUUGCAUUGGAUACUCAGAAGAAAUGUUGGCCAAAGGUGUGUAAAUGCGGGUGAACUGCGACAGGCUAGGUACCAUGUUAAUGUACGCUGGUCGCUGGGUGAUGCCAAACAACAGAGGAUUGAGCAUCA
B11: chr3:33650081:33650082:-_ENSG00000163539_ENST00000461133|hu_mus|FALSE|FALSE (ssRNA)
RNA: GGGAGUUCUACAGUCCGACGAUCCAAAACAGCUGCAUGUCUUUCCAGUGAAUGAGUCUGCCAUUCUUGCAGCAGCAAAUCUAAAAAUUCAAAUGAACGUCUCCUUACAGGAACUGACUUUGAUGUGCAGUUGCUUGUUAUUAACAACAGAGGAUUGAGCAUCA
B12: chr22:26877738:26877739:-_ENSG00000100099_ENST00000336873|hu_hu|FALSE|FALSE (ssRNA)
RNA: GGGAGUUCUACAGUCCGACGAUCUCCACCACGAGGCUGACUUUGCCUCUGUGGAGGUAGAGGUGGCCAUCUACUGUGCAGUCAUCCUCAUUCUCUUCAUUUAGGUUUUCUUUUCCGGUAUCACUUCUUUCUCCCUAGCUGUGACAACAGAGGAUUGAGCAUCA
B13: 3777173_3777293_296_3pUTR_ENSG00000101224_ENST00000439880|human|control|control (ssRNA)
RNA: GGGAGUUCUACAGUCCGACGAUCGGCCAUGAGAUCCCAGCAGGAGGCCCGGGAGGUGGCCCGGACGCUGGGCGCCACCGCACACGCCUGCUGGACUGAGAGCCGAGCCUGGCGCGGGCUCCGGCUGGGGCACCUCCAUCGCGGCAACAGAGGAUUGAGCAUCA
B14: chr7:97326020:97326021:+_ENSMUSG00000039361_ENSMUST00000049537|mus_mus|motif|central (ssRNA)
RNA: GGGAGUUCUACAGUCCGACGAUCGGUUGGCUGCUGCAAGUCAAGCAGGUCAUUUGGCAGCUUAGAUGUGCUGUUAGAAGAACGGGGGGUAGAAAAUAUGUCAAUGGCUGGUGCAGUCAUUAUUCCCCCUGCUGAGGUGGACACCAACAGAGGAUUGAGCAUCA
B15: chr1:89688648:89688649:+_ENSMUSG00000026289_ENSMUST00000027512|mus_hu|FALSE|FALSE (ssRNA)
RNA: GGGAGUUCUACAGUCCGACGAUCUGGCCUUCAUCACAACCCCUGAAACGGAAAGAUGGCGCUGCUGUGCUUCUGAGCCUAGGCUUCUUGCACUAAAGCACCAAGGGCAUCGCACACAGGCUUGGCAGAGGGGCCAUGGCCAGACAACAGAGGAUUGAGCAUCA
B16: chr12:48362563:48362564:+_ENSG00000134291_ENST00000256686|hu_hu|hu_hu_hu_mus_False|48_48 (ssRNA)
RNA: GGGAGUUCUACAGUCCGACGAUCUCCGUCAAGCCCUUCGAUAGACCCUUGCGGGGGAAACUGUAAUCACUUUGUAUGGGGAAGGAAAAAAAAAGCCAAAAACUUUCCAAAAAGCGGGGGUGGGGUGAGGCGGGAGGGGGAGGUCAACAGAGGAUUGAGCAUCA
B17: chr8:113366719:113366720:-_ENSMUSG00000033732_ENSMUST00000042012|mus_mus|FALSE|FALSE (ssRNA)
RNA: GGGAGUUCUACAGUCCGACGAUCCAUAUUCUUUGAUGGCUGGUAUUCCAAGAUAACAAUCCGGCCUGAGUCACUGCCAACUACAAUGUAGUCUUUGGUGCCACCUGUUAGCCUAAACGCCAUAAGUGACCGGAUAACACCAAACAACAGAGGAUUGAGCAUCA
B18: chr2:217001844:217001845:+_ENSG00000079246_ENST00000392132|hu_hu|hu_hu_hu_mus_False|38_38 (ssRNA)
RNA: GGGAGUUCUACAGUCCGACGAUCACCAACUUGAGGAUUAGAUCUUUUGUCAUAAGCAUAUCGGACGAUGGCGACCAUGUUUAACUCAUCCAAAGCAUGAAUCAGGGAGGAAAGGGCAACAGCUGCCGCCUCAUCAUCCUUUGCCAACAGAGGAUUGAGCAUCA
B19: 135886410_135886530_3772_3pUTR_ENSMUSG00000039959_ENSMUST00000060311|mouse|control|control (ssRNA)
RNA: GGGAGUUCUACAGUCCGACGAUCACCAAAGCGUAGCCUGAGCCGCACCGGGGUGUGCUGGCGCUGUGGGGGGGCUUCCUCUCAGAAGGCUCAGAGCUCAGGGUCAGGCUGGGUGGGGGAGGAAUCCUUUUUGGGAAAGUUGGUCAACAGAGGAUUGAGCAUCA
B20: chr2:232320318:232320319:-_ENSG00000115053_ENST00000322723|hu_hu|hu_hu_hu_mus_True|58_68 (ssRNA)
RNA: GGGAGUUCUACAGUCCGACGAUCACUAUUAAAGUCUACAAAACCAAACCCUUUGGAAGAACCAGUUUCCCGGUCAGUAACUAUCCUUGCACGAACAGAGCCCUCAAAUGAUUCUUUUAAGGUCUCUUCAGUGGUAUCCUCAGACAACAGAGGAUUGAGCAUCA
B21: 115046742_115046862_1765_3pUTR_ENSG00000182985_ENST00000542447|human|control|control (ssRNA)
RNA: GGGAGUUCUACAGUCCGACGAUCGAACAGAAAAGGGAAGGAAAAGAGUCUAAGGAAUCCCAGCAGGCAAAUUCCAAAAUGGGAGAUUUUGGAAAAAAUCCGAAAUUGGGGUAGAGGGAGGAAAUAAAUGUGCACAAAGGGGGACAACAGAGGAUUGAGCAUCA
B22: 62242893_62244831_779_CDS_ENSG00000023608_ENST00000216294|human|control|control (ssRNA)
RNA: GGGAGUUCUACAGUCCGACGAUCUUUUUCUUCUCCAUCAUUAGUUUUUGACUUUAAGGAUGGAUUCUUUCUGUCUUUGUGCCACUGCUGAUGCUCCAAAACUAUGUUCUUAAUAUUGUCAAAAAAAUCAUCCUUUAUCAAGCUCAACAGAGGAUUGAGCAUCA

This passage reports binding signal results from publication PMC12136788.

The other results are listed elsewhere or left out.

For this experiment, the target named is T1, UNK ZnF1-3. The experiment in a line: nsRBNS (natural sequence RNA bind-n-seq); RBNS binding buffer (assumed for nsRBNS): 25 mM Tris pH 7.5, 150 mM KCl, 3 mM MgCl2, 0.01% Triton X-100, 500 ug/ml BSA, 20 U/ml SUPERase-In, 4 C; UNK is unkempt and MSI1 is Musashi-1; names of the RNAs are library labels; protein concentration not given here; high values mean tight binding.
B1: the binding signal worked out at 0.56 enrichment R.

For the molecule B2, the binding signal is 0.863 enrichment R.

Take B3: the binding signal was 1.2 enrichment R.

With B4, the binding signal was found to be 0.919 enrichment R.

For the molecule B5, the binding signal came to 1.05 enrichment R.

With B6, the binding signal is 1.5 enrichment R.

On to B7, for which the binding signal turned out to be 2.08 enrichment R.

B8 gave a binding signal of 0.699 enrichment R.

For B9, the binding signal is 0.703 enrichment R.

B10 had a binding signal of 1.14 enrichment R.

The molecule B11 came in with a binding signal of 0.734 enrichment R.

As to B12, the binding signal came to 0.622 enrichment R.

For the molecule B13, the binding signal was determined as 0.471 enrichment R.

On to B14, for which the binding signal worked out at 1.05 enrichment R.

Molecule B15 yielded a binding signal of 0.983 enrichment R.

On to B16, for which the binding signal was found to be 3.09 enrichment R.

In the case of B17, the binding signal is 0.694 enrichment R.

B18 returned a binding signal of 1.72 enrichment R.

Molecule B19 returned a binding signal of 1.39 enrichment R.

As to B20, the binding signal worked out at 0.654 enrichment R.

In the case of B21, the binding signal stood at 3.01 enrichment R.

B22 registered a binding signal of 0.607 enrichment R.
